Here are results for 85 compounds from ChEMBL document CHEMBL4888484, “Replenishing the malaria drug discovery pipeline: Screening and hit evaluation of the MMV Hit Generation Library 1 (HGL1) against asexual blood stage Plasmodium falciparum ,using a nano luciferase reporter read-out” (2022).

In general, % Inhibition refers to the change of the read-out against control, counted positive when it falls.

SMILES strings stand for the structures. Hit rate of the full screen: of about 150,000 compounds, about 540 (0.36%) showed an effect of 50% or more. Some of the results follow.

For this assay, the system named is Plasmodium falciparum. Kind of assay: Primary screen in NF54 nanoGlo assay, in single point, at 2uM, 72h; a lower Z score goes with more inhibition. The format is functional, Erythrocyte. As to conditions: timepoint 72 hour.
With `CCOC(=O)C(C)CNC(=O)C1CCN(c2ccccc2Cl)C1` (stereo not given), the “% Inhibition” value was found to be 0% and the Z score stood at 0.08.
`CO[C@H]1CCN(c2ccc(NC(=O)C3CCN(S(C)(=O)=O)CC3)cc2)C1`: the “% Inhibition” value is reported as -23% and the Z score is given as 2.96.
Regarding `CN(Cc1ccccc1Cn1cccn1)[C@@H]1CCCC[C@@H]1O`, the “% Inhibition” value is listed as -1% and the Z score is reported as 0.12.
Regarding `N#Cc1ccc([C@@H](O)CN2CCCOCC2)cc1`, the “% Inhibition” value is reported as -4% and the Z score was found to be 0.71.
Turning to `COc1ccc(-c2noc(-c3c[nH]c4ccc(F)cc4c3=O)n2)cc1OC`, the “% Inhibition” value is recorded as -6% and the Z score was 0.91.
The like results for `CCCc1nc(C(=O)N(Cc2ccccn2)C2CCCCC2)cs1` were, in that order, -15% and 1.76.
Taken in the same sequence, the figures for `CC(=O)N1CCCN(S(=O)(=O)N(C)C2CCCCC2)CC1` were -3% and 0.51.
As to `CCN(Cc1ccc(OC)c(F)c1)S(=O)(=O)c1ccc(S(=O)(=O)N2CCCC2)cc1`, the “% Inhibition” value is listed as -1% and the Z score amounted to 0.08.
On to `Cc1n[nH]c([C@@H]2CN(Cc3nc(C)c(C)o3)CCO2)n1`, for which the “% Inhibition” value was 5% and the Z score is -0.51.
The like results for `CN(C)C(N)=NCc1ccc(C2CC2)cc1` were, in that order, 7% and -1.15.
The like results for `CCCc1nc(N2C[C@@H]3[C@H](C2)[C@H]2CC[C@@H]3O2)no1` were, in that order, -7% and 1.04.
Turning to `Cc1ccoc1C(=O)N1CCCNC(=O)C1`, the “% Inhibition” value was -17% and the Z score is on record as 1.87.
Taken in the same sequence, the figures for `Cc1cccc2c(=O)n(CC(=O)Nc3ccccc3Oc3ncc(Cl)cc3Cl)cnc12` were 16% and -3.09.
Regarding `C[C@@H](Cc1ccsc1)NS(=O)(=O)CC1CCOCC1`, the “% Inhibition” value is on record as -9% and the Z score stood at 1.38.
The like results for `Cc1cccc(Nc2nc(N)nc(N)c2S(=O)(=O)c2ccc(Cl)cc2)c1` were, in that order, 12% and -1.38.
As for `COc1ccccc1NC(=O)c1oc2ccccc2c1NC(=O)c1ccc2ccccc2c1`, the “% Inhibition” value was -1% and the Z score came out at 0.17.
For the compound `O=C(Nc1c(C(=O)Nc2ccc3c(c2)OCCO3)oc2ccccc12)c1cc2ccccc2o1`, the “% Inhibition” value was -3% and the Z score is 0.51.
Turning to `O=C(NC[C@H]1CCCN1c1ncccn1)C1CCCC1`, the “% Inhibition” value was 0% and the Z score is 0.02.
Regarding `O=C(c1c[nH]c(=O)c(C(F)(F)F)c1)N1CCC[C@H](OCC2CC2)C1`, the “% Inhibition” value came out at 11% and the Z score is given as -1.06.
For the compound `C#Cc1cccc(NC(=O)N2CC(S(=O)(=O)N3CCN(C(=O)OC(C)(C)C)CC3)C2)c1`, the “% Inhibition” value is -8% and the Z score is given as 1.11.
Taken in the same sequence, the figures for `COc1cccc(-c2nc(NCc3cccnc3)nc3nn(-c4cccc(C)c4)c(N)c23)c1` were -1% and 0.08.
For the compound `CC(C)C(C)(NC(=O)C1CCCO1)c1ccc(Br)cc1` (stereo not given), the “% Inhibition” value is given as -5% and the Z score is 1.07.
Consider `CN(Cc1cnccn1)c1cc(C2CC(O)C2)nc(N)n1` (stereo not given), for which the “% Inhibition” value was -1% and the Z score was 0.11.
With `Cc1cccc(CNC(=O)c2ccc(-c3ccsc3)nc2)c1`, the “% Inhibition” value stood at 3% and the Z score is recorded as -0.35.
The like results for `CCc1nc([C@H](C)NC(=O)NC2CCN(c3cc(C)nc(C)n3)CC2)cs1` were, in that order, 5% and -0.49.
As to `Cc1ccccc1-c1nc(C)c(CNC(=O)COc2cccc(C(F)(F)F)c2)s1`, the “% Inhibition” value is given as -4% and the Z score is listed as 0.76.
Take `CCN(CC(F)(F)F)C(=O)C(=O)Nc1cc(C)ccc1F`: the “% Inhibition” value was 5% and the Z score was -0.61.
In the case of `CC1(C)COC(=O)[C@H]1OCN1CCCC1=O`, the “% Inhibition” value was 42% and the Z score is -5.43.
For `CN(CCN(C)C1CCCC1)C(=O)[C@@H](O)Cc1ccccc1`, the “% Inhibition” value was -3% and the Z score is listed as 0.44.
On to `OC1CCC(NCc2cc(Br)c3c(c2)OCO3)CC1` (stereo not given), for which the “% Inhibition” value is given as -6% and the Z score was 1.23.
Consider `COc1ccccc1C(C)CC(=O)N1CCCC[C@@H]1C(=O)O` (stereo not given in full), for which the “% Inhibition” value is listed as 8% and the Z score was -1.09.
Consider `COc1cc2c(cc1CNc1cc([C@H]3CCOC3)nc(N)n1)OCCO2`, for which the “% Inhibition” value is 0% and the Z score is -0.04.
Regarding `NC1CC(c2cc(N3CCC(C(=O)NC4CCCCCC4)CC3)ncn2)C1` (stereo not given), the “% Inhibition” value was -3% and the Z score is 0.72.
`CCCCNCCOc1ccc(Cl)cc1`: the “% Inhibition” value is 0% and the Z score came out at 0.05.
For the compound `O=C(C[C@@H](c1ccccc1O)N1CCCCC1)N1CCCCC1`, the “% Inhibition” value is on record as -6% and the Z score amounted to 0.93.
`Cc1ncn(CC(=O)N2CCC[C@H](c3ccn(C)n3)C2)c(=O)c1C`: the “% Inhibition” value came to 5% and the Z score is listed as -0.57.
Taken in the same sequence, the figures for `CCCN1CC2(CCN(Cc3cc(C)cc(C)c3)CC2)C[C@H]1C(=O)O` were -2% and 0.32.
Taken in the same sequence, the figures for `COc1cccc(NC(=O)NC2CCC(c3n[nH]c(N)n3)CC2)c1` (stereo not given) were -6% and 0.72.
`COC(=O)[C@@H](C)CN(C)c1ncc(Cl)cn1`: the “% Inhibition” value is -8% and the Z score turned out to be 1.08.
With `COc1ccccc1C(=O)Nc1ccc(-c2cc[nH]n2)cc1`, the “% Inhibition” value is reported as -5% and the Z score is given as 1.01.
For the compound `O=C(Nc1ccccc1)OC1CCCC(NS(=O)(=O)Cc2ccccc2)C1` (stereo not given), the “% Inhibition” value is given as -19% and the Z score came to 3.67.
`CCOC(=O)c1cnc2ccnn2c1C1CC1`: the “% Inhibition” value was found to be 32% and the Z score is reported as -3.67.
As to `CC[C@H]1CN(C)CCN1c1cc(-c2ccccc2)nc2ncnn12`, the “% Inhibition” value was -7% and the Z score stood at 1.39.
The like results for `CC(C)OC1CC(N2CC[C@H](NC(=O)NC3CC3)C2)C1` (stereo not given in full) were, in that order, 7% and -1.11.
On to `c1cncc(Oc2cccc(OCc3noc4c3CCCC4)c2)c1`, for which the “% Inhibition” value is recorded as -5% and the Z score is given as 0.68.
Taken in the same sequence, the figures for `CO[C@@H]1C[C@@H](c2ncc[nH]2)N(C(=O)c2cccc(F)c2O)C1` were -10% and 1.
Consider `COc1cccc(-c2noc(-c3ccoc3)n2)c1`, for which the “% Inhibition” value is reported as -8% and the Z score stood at 0.98.
Take `Cc1ccc(/N=C2/C(=N\c3ccc(C)cc3)N(c3ccccc3)CCCN2c2ccccc2)cc1`: the “% Inhibition” value is on record as -9% and the Z score is 1.6.
For the compound `c1ccc([C@@H]2NCCc3c2[nH]c2ccccc32)cc1`, the “% Inhibition” value is 0% and the Z score is 0.05.
As to `O=c1cccc(-c2nc(-c3ccco3)no2)[nH]1`, the “% Inhibition” value is given as -3% and the Z score is listed as 0.25.
In the case of `O=S(=O)(NC1(Cc2ccccc2)CC1)N1CCCC1`, the “% Inhibition” value is reported as 0% and the Z score is reported as -0.08.
As to `CC(C)=CCN1C(=O)[C@@H]2CC[C@H]1CN(C(=O)c1nc3ncccn3n1)C2`, the “% Inhibition” value is reported as -1% and the Z score is listed as 0.21.
In the case of `Cn1cc([C@@H]2CCCN2c2cccc(C(=O)O)n2)cn1`, the “% Inhibition” value is -2% and the Z score was determined as 0.39.
With `Nc1nc(CNCc2ccc3cccc(Cl)c3n2)cs1`, the “% Inhibition” value stood at 6% and the Z score is -0.76.
Taken in the same sequence, the figures for `CC1CN(Cc2ccccc2)CC1NC(=O)c1ccon1` (stereo not given) were -1% and 0.1.
Taken in the same sequence, the figures for `C=CCn1ncc(CN2CCC[C@H](c3cc(O)ncn3)C2)c1C` were -5% and 0.5.
Take `COc1ccc(OC)c2c1cc(C(=O)Nc1nnc(C)s1)n2C`: the “% Inhibition” value is recorded as -21% and the Z score was determined as 2.57.
As to `COC[C@@]12CCN(S(=O)(=O)Cc3ccccc3)C[C@@H]1CN(S(C)(=O)=O)C2`, the “% Inhibition” value was -19% and the Z score is listed as 2.25.
Regarding `O=C(c1ccns1)N(Cc1ccccc1)CC1(O)CCOCC1`, the “% Inhibition” value is reported as -5% and the Z score is 0.88.
On to `C[C@](O)(CCc1ccccc1)C(=O)Nc1ncccc1O`, for which the “% Inhibition” value was -2% and the Z score is given as 0.26.
As to `CCc1n[nH]c(C)c1-c1ccc2c(c1)OCCO2`, the “% Inhibition” value is -6% and the Z score is given as 0.87.
Consider `Clc1ccc(-c2nc3cnccn3c2Nc2ccc3c(c2)OCCO3)s1`, for which the “% Inhibition” value is listed as -18% and the Z score was determined as 1.8.
Regarding `COCC1(CNc2cc(OC)nc(N)n2)CCCC1`, the “% Inhibition” value is given as -1% and the Z score is 0.14.
In the case of `O=C(c1c(F)cccc1F)N1CCN(Cc2nc(C3CC3)no2)CC1`, the “% Inhibition” value was found to be 4% and the Z score is recorded as -0.6.
On to `CCCc1nc(N2CCN(C(=O)Nc3cccc(F)c3)CC2)c2c(C)nn(-c3ccccc3)c2n1`, for which the “% Inhibition” value was 10% and the Z score is -1.41.
With `COCc1nc(CNC(=O)C2(C(F)(F)F)CCCCC2)cs1`, the “% Inhibition” value is recorded as -5% and the Z score is given as 0.76.
For `CN1CC[C@@]2(CCC1=O)CN(C(=O)OCc1ccccc1)CCN2C`, the “% Inhibition” value is given as -1% and the Z score came out at 0.1.
Take `CC(C)c1ccc(NC(=O)[C@H]2CC(=O)N(c3cccc(C(=O)Nc4ccccc4)c3)C2)cc1`: the “% Inhibition” value is given as -16% and the Z score worked out at 1.53.
Turning to `Cc1ccc(-c2n[nH]c(=O)c3c2CCCC3)cc1S(=O)(=O)N1CCCC[C@@H]1C`, the “% Inhibition” value stood at 10% and the Z score is -1.75.
Take `CC(C)(CN1CCOCC1)NC(=O)C[C@H]1CCCOC1`: the “% Inhibition” value is -10% and the Z score came out at 1.35.
With `CCn1cc(CN2CCC(C(=O)NCc3cc(OC)ccc3OC)CC2)c2cc(OC)ccc21`, the “% Inhibition” value is recorded as -10% and the Z score was found to be 1.62.
The like results for `COc1ncccc1C(=O)Nc1ccc2c(c1)CCC(=O)N2` were, in that order, -6% and 0.63.
For the compound `CCOc1cccc(CN2CCC(C)(c3noc(C4CCOCC4)n3)CC2)c1`, the “% Inhibition” value is -13% and the Z score came to 1.51.
On to `O=C(C[C@]1(c2cccc(F)c2)CC(=O)N(C2CCCC2)C1=O)N1CCC(O)(c2ccccn2)CC1`, for which the “% Inhibition” value is recorded as -14% and the Z score was determined as 1.89.
Turning to `Cc1ccc(NC(=O)C(=O)NCc2nc(C)no2)c(Cl)c1`, the “% Inhibition” value is on record as -14% and the Z score turned out to be 1.42.
Taken in the same sequence, the figures for `O=C(Cc1cccnc1)NC1CCCC1Oc1ccccc1` (stereo not given) were 1% and -0.09.
In the case of `CCN(Cc1nnc(C)n1CC)C[C@H]1COc2ccccc2O1`, the “% Inhibition” value was determined as 7% and the Z score is given as -1.01.
As for `CC[C@@H](C(=O)Nc1nccs1)N1CCC(c2nnc[nH]2)CC1`, the “% Inhibition” value was -6% and the Z score turned out to be 0.95.
The like results for `O=C(Nc1ccncc1)c1cc(C2CC2)n[nH]1` were, in that order, -7% and 1.41.
`CN(C)[C@H]1CCN(C(=O)c2cnn(-c3nccc(-c4ccccc4C(F)(F)F)n3)c2C2CC2)C1`: the “% Inhibition” value is on record as -21% and the Z score is recorded as 4.1.
Turning to `CCn1cnc2c1CCN(C(=O)Nc1cc([C@@H]3CCCO3)nn1C)C2`, the “% Inhibition” value is given as 1% and the Z score is listed as -0.15.
`O=C(Nc1cccc2ccccc12)c1cccc(NCc2ccc3c(c2)OCO3)c1`: the “% Inhibition” value was found to be 2% and the Z score is -0.31.
The like results for `Cc1cc(C)n(-c2nc3c(c(=O)n2CC(=O)N(C)c2ccccc2)CCC3)n1` were, in that order, -13% and 1.49.
On to `CCc1nnc(CNC(=O)N2CC3(C2)CC3(F)F)s1`, for which the “% Inhibition” value is reported as -10% and the Z score is given as 0.97.
For `CCN1CC(=O)N[C@H]2CN(C(=O)CCn3ccnc3C)CC[C@@H]2OCc2cccc(c2)Oc2cc(OC(C)C)cc(c2)C1=O`, the “% Inhibition” value was 27% and the Z score is given as -1.33.
